Source: PubChem BioAssay AID651820 (National Center for Advancing Translational Sciences (NCATS), 2012)
About 12,000 (3.5%) of roughly 340,000 compounds were called active. Inconclusive results, whose numbers are uncertain, are shown with a selection of clear calls. The call rests on the fitted dose curve; in most records, active means well fitted inhibition curve with a large enough effect; inconclusive means small, poorly fitted or top-dose-only effect, or another doubt; inactive means no such curve, though single readings can be large or run the other way. Potencies of inconclusive entries are left out as doubtful fits.

Test: qHTS Assay for Inhibitors of Hepatitis C Virus (HCV)
Details: Huh7.5.1 HCVcc-Cre (HCVcc is cell-culture hepatitis C virus) infection, luciferase reporter, 44 h; activity change, negative = inhibition: at 41.8 µM (top of the series)
In short: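 Seed cells (1,000/well) for 4 h; treat with compound and infect with HCVcc-Cre, moi about 0.5. Incubate 44 h, then detect luciferase activity.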
On the % scale 0 is the no-effect control and ±100 the full control effect; potency means the concentration at half of the fitted maximal effect; tags describe the fitted curve by direction and shape.

**Q.** For Cc1ccc(-c2csc(NC(=O)CSc3nc(C)cs3)n2)cc1, which Potency is on record?
**A.** inconclusive [inhibitor, single point]

**Q.** With O=C(c1ccccc1F)N1CCN(C2CCC(c3ccccc3)CC2)CC1 (centres undefined) as the compound, how does the Potency read?
**A.** inconclusive [inhibitor, single point]

**Q.** For CC(=O)Oc1ccccc1C(=O)Oc1ccc(/C=N/n2cnnc2)cc1, which “activity change, negative = inhibition” value is on record?
**A.** inactive: 13.6%

**Q.** Which Potency does the source give for COc1ccc(Cl)cc1NC(=O)Nc1cnccn1 here?
**A.** inconclusive [inhibitor, partial curve]

**Q.** Which “activity change, negative = inhibition” value does the source give for COc1ccc(OCCCc2c(C)n[nH]c2C)cc1 here?
**A.** inactive: -20.6%

**Q.** For CC(C)(C)c1ccc(C(=O)N/N=C/c2cccc(Cl)c2)cc1, which Potency is on record?
**A.** active: 7.08 µM

**Q.** For CC(=O)Nc1nc2cc3c(cc2s1)OCCO3, which Potency is on record?
**A.** inconclusive [inhibitor, single point]

**Q.** Which “activity change, negative = inhibition” value does the source give for O=C(CCCc1c[nH]c2ccccc12)NCc1ccccc1C(F)(F)F here?
**A.** inactive: -11.8%

**Q.** With CCOC(=O)C1CCCN(C(=O)CCC(=O)Nc2ccc3nc(N4CCOCC4)cc(C)c3c2)C1 (centres undefined) as the compound, how does the “activity change, negative = inhibition” value read?
**A.** inactive: 4.17%

**Q.** With COc1ccc(OC)c2sc(NC(=O)C(C)C)nc12 as the compound, how does the Potency read?
**A.** active: 7.94 µM

**Q.** For O=C(NC1CCCC1)C(c1ccncc1)N(C(=O)c1csnn1)c1ccc(F)cc1 (centres undefined), which “activity change, negative = inhibition” value is on record?
**A.** inactive: 1.43%

**Q.** Which Potency does the source give for CCOC(=O)N1CCC(N2Cc3cccc(C(=O)Nc4c(C)cccc4CC)c3C2=O)CC1 here?
**A.** inconclusive [inhibitor, single point]

**Q.** With Cc1nc2c(-c3ccccc3)c(C)nn2c(C)c1CCC(=O)O as the compound, how does the Potency read?
**A.** inconclusive [inhibitor, single point]

**Q.** For CCCCNC1C(CC)C(CCC)C(C#N)(C#N)C1(C#N)C#N (centres undefined), which Potency is on record?
**A.** active: 12.6 µM

**Q.** With COc1ccc([C@@H]2CC(=O)c3c(O)cc(O[C@@H]4OC(CO[C@@H]5OC(C)[C@H](O)[C@@H](O)[C@H]5O)[C@@H](O)[C@H](O)[C@H]4O)cc3O2)cc1O (some centres undefined) as the compound, how does the Potency read?
**A.** inconclusive [inhibitor, single point]

**Q.** For O=C(Nc1cccc(S(=O)(=O)Nc2ccccc2F)c1)c1ccc2ccccc2n1, which Potency is on record?
**A.** inconclusive [inhibitor, partial curve, poor fit]

**Q.** Which Potency does the source give for Cc1cccc(OC(C)C(=O)Nc2cc(S(=O)(=O)N3CCCCC3)ccc2C)c1 (centres undefined) here?
**A.** inconclusive [inhibitor, single point]

**Q.** For CC[C@]12c3[nH]c4ccc(OC)cc4c3CCN1C(=O)C(CC(=O)NC/C=C(\C)CCC=C(C)C)C[C@@H]2C(=O)N1CCN(C(=O)C2CC2)CC1 (some centres undefined), which Potency is on record?
**A.** inconclusive [inhibitor, full curve, poor fit]

**Q.** With CCC1CCCCN1CCCNC(=O)Cn1ncn2nc(-c3ccc(OC)cc3)cc2c1=O (centres undefined) as the compound, how does the Potency read?
**A.** inconclusive [inhibitor, single point]
